Screen size: about 200,000 compounds; about 10 (0.005%) were called active. Inconclusive results, whose numbers are uncertain, are shown with a selection of clear calls. The call rests on the fitted dose curve; in most records, active means well fitted inhibition curve with a large enough effect; inconclusive means small, poorly fitted or top-dose-only effect, or effect the other way, or another doubt; inactive means no such curve, though single readings can be large or run the other way. Potencies of inconclusive entries are doubtful fits and often do not repeat.
The molecules below were run against Lysosomal alpha-glucosidase (Homo sapiens) (UniProt P10253) (assay: qHTS Assay for Inhibitors of Human alpha-Glucosidase as a Potential Chaperone Treatment of Pompe Disease). Conditions: purified human GAA, 4-MU-alpha-glucoside fluorescence; activity change, negative = inhibition: at 76.9 µM (top of the series) unless noted.
Summary of the method: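 Read-out is 4-methylumbelliferone fluorescence (Ex 365/Em 440 nm) after NaOH/glycine stop at pH 10. Enzyme 4 nM, substrate 400 uM, pH 5.0 citrate buffer, 20 min room temperature; AC50 from Hill-equation concentration-response.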
Potency means the concentration at half of the fitted maximal effect; tags describe the fitted curve by direction and shape.
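Wherever activity change, negative = inhibition is given: plate controls were uninhibited enzyme wells for no effect and no-enzyme background for full effect.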

Activity change, negative = inhibition, inconclusive:
CCOC(=O)CSc1nnc(CNC(=O)c2ccc(OC)cc2)n1Cc1ccccc1 15.2% [activator]
O=C(CSc1nc(C2CC2)nc2ccccc12)Nc1ccccc1N1CCOCC1 7.31% [activator]
Nc1c(C(=O)O)cnc2nc(N3CCOCC3)nn12 -15.8% [inhibitor]
Cc1cccc(NC(=S)NC(=O)c2ccc(Br)o2)c1C 14.3% [activator]
CC(=O)NC1C(OCc2ccccc2)OC2COC(C)(C)OC2C1O (centres undefined) 15.8% [activator]
CC(C)CNC(=O)C(=O)NCCCN1CCOCC1 12.2% [activator]
O=C(O)/C=C/c1ccc(S(=O)(=O)Nc2ccc(C(=O)NCC(=O)O)cc2)cc1 -16.2% [inhibitor]
O=C(C1CC1)N1CCc2cc(Br)cc(S(=O)(=O)NCc3ccc4c(c3)OCO4)c21 -18.2% [inhibitor]
NNC(=O)c1nc[nH]c1C(=O)Nc1ccccc1[N+](=O)[O-] -17% [inhibitor]
N#Cc1cc2c([nH]c1=S)CCCCCC2 -16% [inhibitor]
CN1CCN(C(=O)C2CCC(C)(C(=O)O)C2(C)C)CC1 (centres undefined) 17.2% [activator]
O=C(CSc1ccccc1)Nc1cccc(NC(=O)c2ccco2)c1 8.9% [activator]
Cc1cc(OCC(=O)NC(C)c2ccccc2)ccc1[N+](=O)[O-] (centres undefined) 15.2% [activator]
O=C(COC(=O)CNS(=O)(=O)c1cccc(Br)c1)Nc1ccccc1Sc1ccccc1 -16.5% [inhibitor]
O=C(CSc1nnc(-c2ccco2)c(-c2ccco2)n1)Nc1ccccc1 -16.4% [inhibitor]
CC(=O)N1CC(=O)N(OCc2ccccc2)C1c1ccc(Cl)cc1Cl (centres undefined) -16.1% [inhibitor]
Cc1cc(C)cc(N(CC(=O)Nc2ccccc2)C2=NC3CS(=O)(=O)CC3S2)c1 (centres undefined) -17.7% [inhibitor]
O=C(NC1CCCCC1)C(c1ccc(Cl)cc1)N(C(=O)c1ccccn1)c1cccnc1 (centres undefined) 14.4% [activator]
O=C(c1ccc(Cn2c(=O)[nH]c3ccccc3c2=O)cc1)N1CCN(c2ccccc2)CC1 -15.9% [inhibitor]
CCn1cc(C(=O)NCCC2=CCCCC2)c(=O)c2cc(S(=O)(=O)N(C)C)ccc21 -16.8% [inhibitor]

Activity change, negative = inhibition, inactive:
CC1(C(=O)O)Sc2[nH]c(=O)sc2C2c3ccccc3OC(=O)C21 (centres undefined) 0.936%
O=C(O)/C=C/C(=O)Nc1ccc(SC(F)(F)C(F)(F)C(F)(F)F)cc1 -6.37%
Cc1cc(O)c(NC(=O)c2ccco2)cc1C -4.52%
O=C(c1ccc2ccccc2c1)N1CCN(c2ccc(O)cc2)CC1 4.9%
COC(=O)c1[nH]c2ccccc2c1NC(=O)Oc1ccccc1 -0.895% [at 15.4 µM]

Potency, inconclusive:
Cc1cccc(N=c2oc3cc(O)ccc3cc2C(N)=O)c1 35.5 µM [activator, partial curve]
CCCN(CCC)CCNC(=O)CCC(=O)Nc1ccc2nc(N3CCN(C)CC3)cc(C)c2c1 31.6 µM [activator, partial curve]
Cc1nn(-c2ccccc2)c(Cl)c1/C=N/Nc1ccc(S(=O)(=O)Nc2ccccc2C(=O)O)cc1[N+](=O)[O-] 39.8 µM [inhibitor, single point]
Cc1ccsc1/C=C1/C(=O)NN(c2ccccc2)C1=O 5.62 µM [inhibitor, single point]
CC(=O)N1CCN(S(=O)(=O)c2cccc(C(=O)Nc3nccs3)c2)CC1 14.1 µM [inhibitor, partial curve]
CS(=O)(=O)N1CCN(c2ccccc2NC(=O)c2ccc([N+](=O)[O-])o2)CC1 28.2 µM [inhibitor, partial curve]
Cc1ccc(OCc2nn3c(-c4n[nH]c5c4CCC5)nnc3s2)cc1 0.794 µM [inhibitor, full curve, poor fit]
Cn1c(N=Nc2ccc(N3CCOCC3)cc2)[n+](C)c2ccccc21 63.1 µM [inhibitor, single point]
CCOc1ccc(C2NC(=O)c3ccccc3O2)cc1 (centres undefined) 0.178 µM [inhibitor, full curve, poor fit]
CCNS(=O)(=O)c1cc(OC)c(Cl)cc1OC 35.5 µM [activator, single point]
CC1CCN(c2ccc(C(=O)NCc3ccco3)cc2[N+](=O)[O-])CC1 17.8 µM [inhibitor, partial curve, poor fit]
COC(=O)C1=C(C)NC2=C(C(=O)CC(C)(C)C2)C1c1ccccn1 (centres undefined) 35.5 µM [activator, partial curve]
CC(=O)Nc1ccc(NC(=O)c2nc(-c3ccccc3)oc2C)cc1 50.1 µM [inhibitor, single point]
O=C(NCc1ccc(F)cc1)Nc1cccc([N+](=O)[O-])c1 3.55 µM [inhibitor, single point]
Cc1cccc(-n2c(=O)[nH]c3c(C(N)=O)nc(-c4ccccc4Cl)nc32)c1 31.6 µM [activator, partial curve]
CC(=O)Nc1ccc(-c2ccnc(-c3ccc(NC(C)=O)cc3)n2)cc1 50.1 µM [inhibitor, single point]
COC(=O)Cn1c(CCC(=O)O)ccc1-c1ccccc1 22.4 µM [activator, partial curve]
CCCCOC(=O)Nc1ccc(S(=O)(=O)Nc2ncccn2)cc1 44.7 µM [inhibitor, single point]
CC(C)(C)Cc1nnc(NC(=O)c2cc(-c3ccccc3)nc3ccccc23)s1 0.398 µM [inhibitor, full curve, poor fit]
Cc1ccccc1C([O-])=Nc1ccc[n+](-c2nc3ccccc3nc2NS(=O)(=O)c2ccccc2)c1 44.7 µM [inhibitor, single point]
CCCn1c(=O)c(-c2nc3ccccc3[nH]2)c(O)c2ccccc21 35.5 µM [activator, partial curve]
CCN(CC)C(=O)c1cc2c(=O)n3cccc(C)c3nc2n1C 28.2 µM [activator, single point]
CCOC(=O)N1CCC(NC(=O)c2cc(S(=O)(=O)N3CCOCC3)ccc2F)CC1 0.282 µM [inhibitor, full curve, poor fit]
COc1cccc(C(=O)N2CCN(C(=O)c3ccc(-c4ccccc4)cc3)CC2)c1OC 2.24 µM [inhibitor, partial curve]
O=C(CCC(=O)N1CCN(S(=O)(=O)c2ccc(Cl)cc2)CC1)Nc1ccc2ccccc2c1 39.8 µM [inhibitor, partial curve]
COC(=O)c1ccc(CSc2nc3ccccc3c(=O)n2-c2cccc(OC)c2)o1 56.2 µM [inhibitor, single point]
Cc1ccc(C(=O)N/N=C/C=C/c2ccccc2)cc1 17.8 µM [activator, single point]
O=C(/C=C\c1cn(-c2ccccc2)nc1-c1ccccc1)Nc1nccs1 28.2 µM [activator, single point]
COc1ccc(Cc2nnc(SCC(=O)N3CCc4ccccc4C3)o2)cc1 50.1 µM [inhibitor, single point]
CCOC(=O)c1c(CSc2ccc(C)cc2)oc2ccc(O)cc12 39.8 µM [inhibitor, single point]
O=c1[nH]c(=O)n(Cc2ccccc2)c2nc(-c3ccco3)cc(C(F)(F)F)c12 31.6 µM [activator, partial curve]
Cc1ccc(Oc2nn[nH]n2)cc1 50.1 µM [inhibitor, single point]
COc1ccc(N2CCN(C(=O)COc3ccc4c(C)cc(=O)oc4c3)CC2)cc1 50.1 µM [activator, single point]
CCn1cc(C(=O)O)c(=O)c2cc(F)c(N3CCN(S(=O)(=O)c4ccc(NC(C)=O)cc4)CC3)cc21 28.2 µM [inhibitor, partial curve]
Cn1c(=O)n(CCc2ccccc2)c(=O)c2c1nc1n2CCCN1CCc1ccccc1 31.6 µM [inhibitor, single point]
CC(C)(C)OC(=O)N1CC=C2C(C#N)=C(N)C(C#N)(C#N)C(c3cccs3)C2C1 (centres undefined) 28.2 µM [inhibitor, partial curve]
COC(=O)C1=C(C)NC2=C(C(=O)C(C(=O)OC)C(c3ccc(OC)cc3)C2)C1c1ccccn1 (centres undefined) 50.1 µM [activator, single point]
Cc1noc(C)c1CSc1nnc2sc3ccccc3n12 0.708 µM [inhibitor, single point]
CCc1ccc(C(=O)CSc2n[nH]c(-c3ccncc3)n2)cc1 11.2 µM [inhibitor, single point]
